Source: PubChem BioAssay AID624202 (National Center for Advancing Translational Sciences (NCATS), 2012)
Among all 380,000 compounds or so, about 4,000 (1.1%) were called active. Inconclusive means that the source gave no clear call. Such entries were picked first, then a sample of the others. The call rests on the fitted dose curve; in most records, active means well fitted activation curve with a large enough effect; inconclusive means small, poorly fitted or top-dose-only effect; inactive means no such curve, though single readings can be large or run the other way. A potency beside an inconclusive call is a rough fit, not a confirmed value.

Assay: qHTS Assay to Identify Small Molecule Activators of BRCA1 Expression; further: nearly all actives have a fitted effect of over 80% in size
Settings: MCF7-BRCA1-FFLuc reporter, luminescence, 48 h; activation: at 46.1 µM (top of the series), scaled: vehicle 0%, 10 µM genistein 100% unless noted
Summary of the method: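 MCF7-BRCA1-FFLuc, 2000 cells/well; 2 h attach, 37 °C/5% CO2; compound 48 h; luciferase substrate 15 min; luminescence end-point. Norm. to genistein 10 microM max activation and DMSO; concentration-response curves fitted.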
Potency means the concentration at half of the fitted maximal effect; tags describe the fitted curve by direction and shape.

SMILES	Potency	activation
COc1ccccc1CC(=O)c1ccc(OCc2ccccc2)cc1	active: 8.91 µM	
O=C1CC2CCCN2C=C1I (stereo not given)		inactive: 10.5%
COc1ccc(C(=O)N2CCCC(c3ccccc3)C2)cc1 (stereo not given)	inconclusive: 10 µM [activator, partial curve, poor fit]	
O=C(NCCc1ccc(F)cc1)NC12CC3CC(CC(C3)C1)C2	inconclusive: 2.51 µM [activator, full curve, poor fit]	
Fc1ccc(-c2nc3ccc(Br)cn3c2Cc2ccsc2)cc1	inconclusive: 3.16 µM [activator, full curve, poor fit]	
Cn1c(C(=O)NCCC2=CCCCC2)cc2c(=O)n3ccccc3nc21	active: 11.2 µM	
Cc1ccc(-c2nc3ncccn3c2Nc2ccccc2C)o1		inactive: 4.44%
COc1ccccc1-c1noc(CCC(=O)N2CCN(c3cc(C)ccc3C)CC2)n1		inactive: 0.834%
C/C(=N/NC(=O)CN1CCN(S(=O)(=O)c2ccc(C)cc2)CC1)c1cccc(O)c1		inactive: 6.72%
CCCCn1c(=O)[nH]c(=O)c2c1nc(-c1ccc(-c3ccccc3Br)o1)n2CC		inactive: -35.1%
c1ccc(Cc2nc(-c3ccccn3)no2)cc1	active: 5.01 µM	
Cc1cccc(/C=C2/Sc3ccc(C(=O)NCCN4CCCC4)cc3NC2=O)c1		inactive: -40.4%
Cc1ccc(C(=O)Nc2nnc(C3CCCCC3)s2)o1	inconclusive: 2.51 µM [activator, partial curve, poor fit]	
CCOc1ccc(NC(=O)NCc2cccn2C)cc1	inconclusive: 2.24 µM [activator, partial curve, poor fit]	
O=C(NC(=S)Nc1cc(Cl)ccc1Cl)c1ccco1		inactive: 0%
CCC(CO)Oc1cc(NC(=O)c2ccccc2C)c2ncn(C(C)C)c2c1 (stereo not given)		inactive: -18.9%
CCOC(=O)c1sc(NC(=O)c2ccc(Br)o2)cc1C	inconclusive: 1.41 µM [activator, partial curve, poor fit]	
O=C1S/C(=C\c2ccc(O)c([N+](=O)[O-])c2)C(=O)N1c1ccccc1Cl		inactive: -10.9%
COc1ccc(CCNC(=O)C2CC(c3cccc([N+](=O)[O-])c3)=NO2)cc1 (stereo not given)	inconclusive: 15.8 µM [activator, single point]	
COc1ccc(-c2noc(-c3ccc4c(c3)OCO4)n2)cc1	inconclusive: 2 µM [activator, full curve, poor fit]	
O=C(Nc1ccc(Cl)cc1)c1ccc2c(c1)OCO2	inconclusive: 0.794 µM [activator, full curve, poor fit]	
Cc1cn(-c2cccnc2)c(C)c1CNC[C@H]1O[C@@H](n2cnc3c(N)ncnc32)[C@H](O)[C@@H]1O		inactive: -34.6%
C#CCNc1ccc(C(=O)OCC)cc1	inconclusive: 11.2 µM [activator, partial curve, poor fit]	
CCOc1ccc2c(c1)c1nc3ccccc3nc1n2C	inconclusive: 14.1 µM [activator, single point]	
O=C(Nc1ccc(F)c(Cl)c1)Nc1nnc([C@H]2C[C@H](O)[C@@H](CO)O2)s1	active: 11.2 µM	

SMILES	Potency	activation
CC(=O)N1CC[n+]2c(-c3ccc(Cl)cc3)csc21		inactive: 4.36%
CCCCn1c(CNC(=O)C23CC4CC(CC(C4)C2)C3)nnc1SCC(=O)Nc1ccccc1		inactive: 7.04%
CCCOc1ccc(-c2nnc(N)s2)cc1	active: 4.47 µM	
COc1ccc2oc(=O)c(C(=O)Nc3ccccc3C)cc2c1	inconclusive: 35.5 µM [activator, single point]	
Cc1ccc(Nc2nc(-c3cccnc3)cs2)cc1Cl	inconclusive: 31.6 µM [activator, single point]	
O=C(/C=C/c1ccco1)NC(=S)Nc1cccc(C(=O)O)c1	inconclusive: 11.2 µM [activator, partial curve, poor fit]	
CCOC(=O)c1ccc(NC(=O)c2ccco2)cc1	active: 7.08 µM	
Cn1c(-c2cc3ccccc3oc2=O)nc2ccccc21	inconclusive: 3.16 µM [activator, partial curve, poor fit]	
C=CCn1c(SCC(N)=O)nc2scc(-c3ccc(C)o3)c2c1=O		inconclusive: 105% [activator]
CN(C(=O)c1ccco1)c1nc(-c2ccccc2)cs1	inconclusive: 28.2 µM [activator, single point]	
CC(=O)Nc1ccc(-c2csc(NCc3ccccc3)n2)cc1	inconclusive: 12.6 µM [activator, partial curve, poor fit]	
O=C(COc1ccc2cc(-c3ccccc3)c(=O)oc2c1)NCC1CCC(C(=O)O)CC1 (stereo not given)		inactive: 23.1%
COc1cccc(N2CN(C3CCCCC3)CNC2=S)c1		inactive: 3.95%
COC(=O)c1ccc(N=NN2CCOCC2)cc1	inconclusive: 11.2 µM [activator, partial curve, poor fit]	
CCC(=O)N1CCCc2cc(S(=O)(=O)Nc3ccc(C)c(C)c3)ccc21		inactive: 0%
Cc1cc(Cl)ccc1OC(C)C(=O)N1CCCN(C(=O)C(C)Oc2ccc(Cl)cc2C)CC1 (stereo not given)		inactive: -82.9%
COc1cc(/C=N/Nc2nc(N3CCCC3)nc(N3CCCC3)n2)ccc1OCc1ccccc1F	inconclusive: 12.6 µM [activator, partial curve, poor fit]	
CC(C)(C)c1ccc(NC(=O)N2CCN(c3ccc([N+](=O)[O-])cn3)CC2)cc1		inactive: -35.1%
O=C(Nc1ccccc1)OC1CC2CC1C1CCCC21 (stereo not given)	inconclusive: 3.98 µM [activator, partial curve, poor fit]	
CCCNC(=O)Nc1ccc2c(c1)nc(C)n2C	inconclusive: 22.4 µM [activator, single point]	
COc1ccc(/C=C/C(=O)c2ccc3c(c2)OCO3)c(OC)c1	inconclusive: 10 µM [activator, partial curve, poor fit]	
COc1ccc(Cl)cc1NC(=O)c1c(NCc2sccc2C)sc2c1CCCC2		inactive: -47.4%
CCCCn1c(SCC(=O)Nc2cc(C)on2)nc2ccsc2c1=O		inactive: -38.6%
COc1ccc(-c2csc(N3N=C(C)C(C)C3=O)n2)cc1 (stereo not given)	inconclusive: 12.6 µM [activator, partial curve, poor fit]	
CSc1cccc(NC(=O)C2C3C=CC4(O3)C2C(=O)N(CCN2CCOCC2)C4C(=O)NC2CCCCC2)c1 (stereo not given)		inactive: -11.7%

SMILES	Potency	activation
O=C(NC(=S)Nc1ccc(Br)cc1)C1CCC1	inconclusive: 17.8 µM [activator, partial curve, poor fit]	
O=[N+]([O-])c1ccc2nc(-c3ccccc3)[nH]c2c1	inconclusive: 2 µM [activator, partial curve, poor fit]	
Cc1cc(C)nc(SCCS(=O)Cc2ccc(Cl)cc2)n1 (stereo not given)		inactive: -16.3%
COc1ccc(C2=NN(CN3C(=O)C(=O)c4ccccc43)C(c3ccc(OC)cc3)C2)cc1 (stereo not given)	inconclusive: 14.1 µM [activator, partial curve, poor fit]	
Cc1ccc(C(=O)N=c2sccn2C)cc1C	inconclusive: 2 µM [activator, full curve, poor fit]	
O=C(CSc1nnc(-c2cccnc2)o1)Nc1cccc(F)c1	active: 10 µM	
COCCNC(=O)c1ccc2c3n(nc2c1)-c1ccccc1CO3	inconclusive: 2.24 µM [activator, full curve, poor fit]	
O=C(CCn1c(=O)sc2ccccc21)Nc1nccs1	inconclusive: 10 µM [activator, partial curve, poor fit]	
COc1cccc(/C=C/c2ccnc3ccccc23)c1OC	inconclusive: 8.91 µM [activator, partial curve, poor fit]	
CCOc1ccc(-c2[nH]nc3c2C(c2cccnc2)C(C#N)=C(N)O3)cc1 (stereo not given)		inactive: -11.5%
Cc1ccc(/C=N/N2CCN(c3ccccn3)CC2)cc1	inconclusive: 4.47 µM [activator, partial curve, poor fit]	
COc1cccc(OCc2cc(C(=O)N3CCN(C)C(c4ccccc4)C3)no2)c1 (stereo not given)	inconclusive: 35.5 µM [activator, single point]	
O=C(Nc1nnc(CC2=CCCCC2)s1)c1cccs1	active: 6.31 µM	
Sc1ccccc1N=Cc1cccs1	inconclusive: 20 µM [activator, partial curve, poor fit]	
CCN1CCN(c2ccc(NC(=O)c3cc4ccccc4cc3OC)cc2C)CC1	inconclusive: 8.91 µM [activator, partial curve, poor fit]	
CS(=O)(=O)N1CCc2cc(C(=O)NCCc3ccccc3)ccc21	inconclusive: 6.31 µM [activator, partial curve, poor fit]	
CCOc1ccc(NC(=S)N(CCc2c(C)[nH]c3ccccc23)Cc2cccnc2)cc1		inactive: -5%
CN1CCN(c2ccc(-c3cccc(NC(=O)COc4ccc(Cl)cc4)c3)nn2)CC1	inconclusive: 2 µM [activator, partial curve, poor fit]	
CC(C)Cn1c(-c2csc3ccccc23)n[nH]c1=S		inactive: -17.4%
C/C(=N\N1CCN(c2ccccc2)CC1)c1ccc(O)cc1	inconclusive: 14.1 µM [activator, single point]	
COc1cccc(CN(CC(=O)NCC2CCCO2)C(=O)CCC(=O)Nc2cc(C)on2)c1 (stereo not given)		inactive: 5.96%
Cc1nc(Nc2nc(CSc3nc4ccccc4[nH]3)cc(=O)[nH]2)nc2ccccc12		inactive: -96.3%
O=C(CSc1ncccn1)NCc1ccc(Cl)cc1	inconclusive: 35.5 µM [activator, single point]	
COc1cccc(C(C(=O)NC(C)(C)C)N(Cc2ccco2)C(=O)CCC(=O)Nc2cc(C)on2)c1OC (stereo not given)		inactive: -24.2%
CC(C)C[C@H](NC(=O)OCC1c2ccccc2-c2ccccc21)C(=O)O	inconclusive: 11.2 µM [activator, partial curve, poor fit]	
